Source: publication PMC9574860, “Chemical Toolkit for PARK7: Potent, Selective, and High-Throughput” (Journal of Medicinal Chemistry, 2022)
Hit rate of the full screen: of about 7,900 compounds, about 400 (5.1%) showed an effect of 50% or more. Some of the results follow.

Each compound was assayed against Parkinson's disease protein 7 (PARK7/DJ1) (human, UniProt Q99497) (assay: primary screen, percent inhibition; read as competition with a fluorescent probe by fluorescence polarization; higher = more effect of the substance). Details: 100 µM.
Procedure, shortened: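 Fluorescence-polarization probe displacement (JYQ-107, 20 nM final, 2 h) after 2 h preincubation of PARK7 (0.2 μM final) with each fragment at 100 μM final. Read-out ex/em 480/520 nm; remaining activity derived from FP signal loss relative to reference controls.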

Sequence of Parkinson's disease protein 7 (PARK7/DJ1) (Q99497 whole entry, looked up, the tested form may be a part): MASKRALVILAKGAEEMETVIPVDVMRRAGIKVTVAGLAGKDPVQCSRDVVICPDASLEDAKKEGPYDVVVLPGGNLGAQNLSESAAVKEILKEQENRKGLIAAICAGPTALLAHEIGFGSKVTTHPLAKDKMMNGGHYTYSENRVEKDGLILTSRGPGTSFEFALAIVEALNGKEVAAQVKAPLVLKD

Structure (SMILES) | Inhibition % [%]
CS(=O)(=O)n1cc(N)cn1 | 10.7
C=CC(=O)NC1(C2(C)CC2)CC1 | 11.8
O=C(CCl)Nc1ccc(N=Nc2ccccc2)cc1 | 5.15
C=CC(=O)Nc1cc2ccccc2nn1 | 95
Cc1ccc(C=CS(=O)(=O)NCCC(=O)O)cc1 | 5.97
Cc1ccc(C=C(C#N)C(=O)N2CCCC2)cc1 | 7.55
O=S(=O)(C=Cc1ccccc1Cl)Nc1ccncc1F | 5.26
O=c1[nH]c(S)nc2c1CCC2 | 5.3
CC1CN(c2ccc(C#N)nc2)CC(C2CC2)O1 (stereo not drawn) | 14
CC1(C)OB(c2ccc3ocnc3c2)OC1(C)C | 2.29
N#Cc1cc2cc(Cl)ccc2[nH]1 | 3.91
CC(C(=O)NC1CC1c1ccccc1)N1C(=O)CCC1=O (stereo not drawn) | 14.1
C=CC(=O)NC1CC(C)c2ccccc21 (stereo not drawn) | 3.52
C=CC(=O)NC1C(=O)N(C)Cc2ccccc21 (stereo not drawn) | 40.9
N#Cc1ccc(C(=O)CCl)cc1 | 18.8
N#Cc1cc(C(=O)N[C@@H]2CCC(=O)N[C@H]2C2CC2)ccn1 | -0.598
CCc1ccc(-c2csc(NC(=O)CCl)n2)cc1 | 8
C=CC(=O)NC1(C)CCCOC1 (stereo not drawn) | 10.2
CC1(c2ccc(S(=O)(=O)F)cc2)OCCO1 | 6.74
O=C(CCCl)Nc1ccccc1F | 6.72
Cn1cc(C(=O)NS(=O)(=O)C=Cc2ccccc2)cn1 | 12

Structure (SMILES) | Inhibition % [%]
C=CC(=O)N1CCN(C(=O)CCOc2ccccc2)CC1 | -3.72
COc1ccc(F)cc1Cn1cnc(C#N)n1 | 3.22
O=C(CCl)c1cnc(N2CCCCC2)s1 | 8.03
Cc1cnc(C#N)cc1Cl | 8.18
CC(C)Oc1ccc(Oc2cnc(C#N)cn2)cc1 | 6.7
C=CS(=O)(=O)c1nc(C)cs1 | 13.6
O=C(O)c1cccc(S)n1 | 18.1
C=CC(=O)Nc1cnn(C(C)(C)C)c1C | 7.94
N#Cc1nccnc1N1CCSC2(CCCCC2)C1 | 1.17
CS(=O)(=O)NCCc1ccc(C(=O)CCl)cc1 | 82.8
COc1ccc(-c2csc(NC(=O)CCl)n2)c(OC)c1 | 4.4
O=C(C=Cc1cccnc1)N1CCN(c2nccs2)CC1 | 10.3
CC(CS(C)=O)Nc1ccc(C#N)nc1 (stereo not drawn) | 5.3
CC1Cc2ccccc2N1C(=O)CCN1C(=O)CCC1=O (stereo not drawn) | 14.9
CN(C(=O)C1CCOCC1)C1CC(C)(C)OC1=O (stereo not drawn) | 6.67
C=CC(=O)N1CCSC2CCCCC21 (stereo not drawn) | 6.99
O=C(O)CCn1c(S)nc2cc(Cl)ccc2c1=O | 4.88
CN1CCOC(CCl)C1 (stereo not drawn) | 2.67
O=C(O)CN1C(=O)CSC1=O | 17.6
Cc1cnn(-c2cccc(B(O)O)c2)c1 | 9.73
O=C(CCCl)NC1CCCc2ccccc21 (stereo not drawn) | 2.39

Structure (SMILES) | Inhibition % [%]
N#Cc1cccc(CN2C(=O)CSC2=O)c1 | 23.4
O=C(CCl)Nc1ccccc1C(=O)Nc1ccc(F)cc1 | 6.28
C=CC(=O)N1CSCC1C(=O)N(C)C(C)C (stereo not drawn) | 0.15
C=CC(=O)NCC1CCCCC1(F)F (stereo not drawn) | 11.8
C=CC(=O)N1CC(c2ccccc2)CC1C (stereo not drawn) | 5.39
Nc1ccc(OC2CC(=O)N2)cc1 (stereo not drawn) | 9.08
CC1(C)OB(c2cncc(NS(=O)(=O)c3ccccc3)c2)OC1(C)C | 8.59
Cl.Cl.N#Cc1cc(CN)ccn1 | 4.13
COc1cc(OC)cc(B(O)O)c1 | 4.31
COC(=O)c1ccccc1CS(=O)(=O)F | 7.86
CC(C)C1CCCN(c2nccnc2C#N)CC1 (stereo not drawn) | 1.71
O=C(CCl)Nc1cc(C2CC2)nn1-c1ccccc1 | 18.1
O=C(CCl)Nc1ccc(S(=O)(=O)N2CCOCC2)cc1 | 87.4
CN1C(=O)CCc2cc(C(=O)CCl)ccc21 | 19.5
CN(Cc1cc[nH]n1)C(=O)c1cc(S(=O)(=O)F)c[nH]1 | 10.5
Cc1cn2c(C#N)c(C)nc2s1 | 7.34
CC1(C)OB(c2cncc3sccc23)OC1(C)C | 31.3
C=CC(=O)N1CCSC(C)C1 (stereo not drawn) | 4.98
Cc1cc(Oc2nccnc2C#N)ccc1Cl | 4.22
N#CN(CC1CCOC1)c1cccc(F)c1 (stereo not drawn) | 6.11
O=C(NC1CCCC(C(F)(F)F)C1)c1cccnc1S (stereo not drawn) | 9.82

Structure (SMILES) | Inhibition % [%]
Cc1cc(C)cc(OCC2CO2)c1 (stereo not drawn) | 9.13
C=CC(=O)N1CCC(NC(=O)CC(F)(F)F)C1 (stereo not drawn) | 10.4
C=C(C)COCCn1c(S)nc2ccccc2c1=O | 3.97
CCCNC(=O)C(C#N)=Cc1ccns1 | 7.03
COc1ccc(C(=O)CCl)cc1F | 91.7
COc1ccc(C(=O)NNC(=O)CCl)cc1 | -3.11
CCc1ccc(C(=O)Cn2cnc(C#N)n2)s1 | 6.2
C=CC(=O)N1CCC2(CC1)CCN(C(=O)C=C)C2 | -0.998
Cn1cc(C=C(C#N)C(=O)NCc2ccccc2)cn1 | 6.12
O=C(C=Cc1ccccc1)c1ccc(S(=O)(=O)F)cc1 | 10.9
C=CC(=O)N1CCN(C)C(=O)C1C (stereo not drawn) | 7.81
CN(C)C(=O)Sc1ccc(N)cc1.Cl | 8.03
Cc1cc(NC(=O)Oc2ccccc2)no1 | 5.25
COc1ccc(NC(=O)NC(=O)CCl)cc1 | 1.55
COc1ccc(C)cc1S(=O)(=O)n1ccnc1C(C)C | 7.25
CN(C)C(=O)CN(C)S(=O)(=O)C=Cc1ccccc1 | 11.8
CCN(CC)C(=O)Oc1ccccc1NC(C)=O | 7.53
C=CC(=O)Nc1cc(C)c2nccn2c1 | 24.8
